# Test results as given in the supplement of paper PMC8728848.
# Some of the results follow.
# Assays:
# Test in all cases: glycan array binding signal (z-score within array); higher = stronger binding
# Conditions in all cases: glycan notation: IUPAC condensed, linker removed
# [1] = target: Gal(b1-4)GlcNAc(b1-3)Gal(b1-4)GlcNAc(b1-3)Gal(b1-4)GlcNAc(b1-3)Gal(b1-4)GlcNAc(b1-2)Man(a1-3)[Gal(b1-4)GlcNAc(b1-3)Gal(b1-4)GlcNAc(b1-3)Gal(b1-4)GlcNAc(b1-3)Gal(b1-4)GlcNAc(b1-2)Man(a1-6)]Man(b1-4)GlcNAc(b1-4)GlcNAc
# Outline: (§1)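 From the Consortium for Functional Glycomics database, 3228 arrays were curated, keeping only those whose protein sequence was available. Binding is given as a within-array Z-score averaged across arrays sharing a protein sequence and across linkers. Negative Z-scores can be read as non-binding.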
# [2] = target: Gal(b1-4)GlcNAc(b1-3)Gal(b1-4)GlcNAc(b1-3)Gal(b1-4)GlcNAc(b1-3)Gal(b1-4)GlcNAc(b1-2)Man(a1-3)[Gal(b1-4)GlcNAc(b1-3)Gal(b1-4)GlcNAc(b1-3)Gal(b1-4)GlcNAc(b1-3)Gal(b1-4)GlcNAc(b1-2)Man(a1-6)]Man(b1-4)GlcNAc(b1-4)[Fuc(a1-6)]GlcNAc
# Outline: as §1
# [3] = target: Gal(b1-4)GlcNAc(b1-3)Gal(b1-4)GlcNAc(b1-3)Gal(b1-4)GlcNAc(b1-3)Gal(b1-4)GlcNAc(b1-2)[Gal(b1-4)GlcNAc(b1-3)Gal(b1-4)GlcNAc(b1-3)Gal(b1-4)GlcNAc(b1-3)Gal(b1-4)GlcNAc(b1-6)]Man(a1-6)[Gal(b1-4)GlcNAc(b1-3)Gal(b1-4)GlcNAc(b1-3)Gal(b1-4)GlcNAc(b1-3)Gal(b1-4)GlcNAc(b1-2)Man(a1-3)]Man(b1-4)GlcNAc(b1-4)[Fuc(a1-6)]GlcNAc
# Outline: as §1
# [4] = target: Gal(b1-4)GlcNAc(b1-3)Gal(b1-4)GlcNAc(b1-3)Gal(b1-4)GlcNAc(b1-3)Gal(b1-4)GlcNAc(b1-3)Gal(b1-4)GlcNAc(b1-2)Man(a1-3)[Gal(b1-4)GlcNAc(b1-3)Gal(b1-4)GlcNAc(b1-3)Gal(b1-4)GlcNAc(b1-3)Gal(b1-4)GlcNAc(b1-3)Gal(b1-4)GlcNAc(b1-2)Man(a1-6)]Man(b1-4)GlcNAc(b1-4)GlcNAc
# Outline: as §1
# [5] = target: Gal(b1-4)GlcNAc(b1-3)Gal(b1-4)GlcNAc(b1-3)Gal(b1-4)GlcNAc(b1-3)Gal(b1-4)GlcNAc(b1-3)Gal(b1-4)GlcNAc(b1-2)Man(a1-3)[Gal(b1-4)GlcNAc(b1-3)Gal(b1-4)GlcNAc(b1-3)Gal(b1-4)GlcNAc(b1-3)Gal(b1-4)GlcNAc(b1-3)Gal(b1-4)GlcNAc(b1-2)Man(a1-6)]Man(b1-4)GlcNAc(b1-4)[Fuc(a1-6)]GlcNAc
# Outline: as §1
# [6] = target: Gal(b1-4)GlcNAc(b1-3)Gal(b1-4)GlcNAc(b1-3)Gal(b1-4)GlcNAc(b1-3)Gal(b1-4)GlcNAc(b1-3)Gal(b1-4)GlcNAc(b1-2)[Gal(b1-4)GlcNAc(b1-3)Gal(b1-4)GlcNAc(b1-3)Gal(b1-4)GlcNAc(b1-3)Gal(b1-4)GlcNAc(b1-3)Gal(b1-4)GlcNAc(b1-6)]Man(a1-6)[Gal(b1-4)GlcNAc(b1-3)Gal(b1-4)GlcNAc(b1-3)Gal(b1-4)GlcNAc(b1-3)Gal(b1-4)GlcNAc(b1-3)Gal(b1-4)GlcNAc(b1-2)Man(a1-3)]Man(b1-4)GlcNAc(b1-4)[Fuc(a1-6)]GlcNAc
# Outline: as §1
# [7] = target: Gal(b1-4)GlcNAc(b1-3)Gal(b1-4)GlcNAc(b1-3)Gal(b1-4)GlcNAc(b1-3)Gal(b1-4)GlcNAc(b1-3)Gal(b1-4)GlcNAc(b1-3)Gal(b1-4)GlcNAc(b1-2)Man(a1-3)[Gal(b1-4)GlcNAc(b1-3)Gal(b1-4)GlcNAc(b1-3)Gal(b1-4)GlcNAc(b1-3)Gal(b1-4)GlcNAc(b1-3)Gal(b1-4)GlcNAc(b1-3)Gal(b1-4)GlcNAc(b1-2)Man(a1-6)]Man(b1-4)GlcNAc(b1-4)GlcNAc
# Outline: as §1
# [8] = target: Gal(b1-4)GlcNAc(b1-3)Gal(b1-4)GlcNAc(b1-3)GalNAc
# Outline: as §1
# [9] = target: Gal(b1-4)GlcNAc(b1-3)Gal(b1-4)GlcNAc(b1-3)[Gal(b1-4)GlcNAc(b1-3)Gal(b1-4)GlcNAc(b1-6)]GalNAc
# Outline: as §1
# [10] = target: Gal(b1-4)GlcNAc(b1-3)Gal(b1-4)GlcNAc(b1-6)[Gal(b1-3)]GalNAc
# Outline: as §1
# [11] = target: Gal(b1-4)GlcNAc(b1-3)Gal(b1-4)[Fuc(a1-3)]GlcNAc(b1-3)Gal(b1-4)[Fuc(a1-3)]GlcNAc
# Outline: as §1
# [12] = target: Gal(b1-4)GlcNAc(b1-3)GalNAc
# Outline: as §1
# [13] = target: Gal(b1-4)GlcNAc(b1-3)[Fuc(a1-3)GlcNAc(b1-6)]Gal(b1-4)Glc
# Outline: as §1
# [14] = target: Gal(b1-4)GlcNAc(b1-3)[Gal(b1-4)GlcNAc(b1-6)]Gal(b1-4)GlcNAc
# Outline: as §1
# [15] = target: Gal(b1-4)GlcNAc(b1-3)[GlcNAc(b1-6)]Gal(b1-4)GlcNAc
# Outline: as §1
# [16] = target: Gal(b1-4)GlcNAc(b1-6)Gal(b1-4)GlcNAc
# Outline: as §1
# [17] = target: Gal(b1-4)GlcNAc(b1-6)GalNAc
# Outline: as §1
# [18] = target: Gal(b1-4)GlcNAc(b1-6)[Gal(b1-3)]GalNAc
# Outline: as §1
# [19] = target: Gal(b1-4)GlcNAc(b1-6)[Gal(b1-4)GlcNAc(b1-3)]GalNAc
# Outline: as §1
# Gal(b1-4)GlcNAc6P = target: Gal(b1-4)GlcNAc6P
# Outline: as §1
# Gal(b1-6)Gal = target: Gal(b1-6)Gal
# Outline: as §1
# Gal3S(b1-3)GalNAc = target: Gal3S(b1-3)GalNAc
# Outline: as §1
# Gal3S(b1-3)GlcNAc = target: Gal3S(b1-3)GlcNAc
# Outline: as §1
binder,measurement,setting,value
CpGal16 (Clavelina picta) (protein) MAKMITNYVGKRIECIMVATDMMSTVFSLASATGDLPFYINFRQRENSIVMNTRVHGKWQYEKSQSSGGMNFYEPFRLVVEVRPSVFKVTVSTMGEEDGITFNLQYSQITIKPDEIVAMHLGYCNLRSELLVTDL,glycan array binding signal (z-score),[1],1.25
same,glycan array binding signal (z-score),[2],1.05
same,glycan array binding signal (z-score),[3],1.12
same,glycan array binding signal (z-score),[4],1.09
same,glycan array binding signal (z-score),[5],1.28
same,glycan array binding signal (z-score),[6],1.41
same,glycan array binding signal (z-score),[7],0.463
same,glycan array binding signal (z-score),[8],-0.168
same,glycan array binding signal (z-score),[9],0.123
same,glycan array binding signal (z-score),[10],-0.075
same,glycan array binding signal (z-score),[11],-0.371
same,glycan array binding signal (z-score),[12],-0.46
same,glycan array binding signal (z-score),[13],-0.452
same,glycan array binding signal (z-score),[14],0.218
same,glycan array binding signal (z-score),[15],-0.287
same,glycan array binding signal (z-score),[16],-0.331
same,glycan array binding signal (z-score),[17],-0.189
same,glycan array binding signal (z-score),[18],-0.295
same,glycan array binding signal (z-score),[19],-0.331
same,glycan array binding signal (z-score),Gal(b1-4)GlcNAc6P,-0.325
same,glycan array binding signal (z-score),Gal(b1-6)Gal,-0.407
same,glycan array binding signal (z-score),Gal3S(b1-3)GalNAc,-0.223
same,glycan array binding signal (z-score),Gal3S(b1-3)GlcNAc,0.11
